In all, about 310,000 compounds went through this assay and about 14,000 (4.5%) showed an effect of 50% or more. The effect is printed as a negative number. The list shows a part of the results.
Molecular target: human ether-à-go-go-related gene (hERG) potassium channel (human, UniProt Q12809)
Assay: primary screen, population patch clamp on CHO cells stably expressing hERG
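Also: peak tail current of the secondary pulse compared with the same well before compound.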

Chain of human ether-à-go-go-related gene (hERG) potassium channel (Q12809 whole entry, looked up): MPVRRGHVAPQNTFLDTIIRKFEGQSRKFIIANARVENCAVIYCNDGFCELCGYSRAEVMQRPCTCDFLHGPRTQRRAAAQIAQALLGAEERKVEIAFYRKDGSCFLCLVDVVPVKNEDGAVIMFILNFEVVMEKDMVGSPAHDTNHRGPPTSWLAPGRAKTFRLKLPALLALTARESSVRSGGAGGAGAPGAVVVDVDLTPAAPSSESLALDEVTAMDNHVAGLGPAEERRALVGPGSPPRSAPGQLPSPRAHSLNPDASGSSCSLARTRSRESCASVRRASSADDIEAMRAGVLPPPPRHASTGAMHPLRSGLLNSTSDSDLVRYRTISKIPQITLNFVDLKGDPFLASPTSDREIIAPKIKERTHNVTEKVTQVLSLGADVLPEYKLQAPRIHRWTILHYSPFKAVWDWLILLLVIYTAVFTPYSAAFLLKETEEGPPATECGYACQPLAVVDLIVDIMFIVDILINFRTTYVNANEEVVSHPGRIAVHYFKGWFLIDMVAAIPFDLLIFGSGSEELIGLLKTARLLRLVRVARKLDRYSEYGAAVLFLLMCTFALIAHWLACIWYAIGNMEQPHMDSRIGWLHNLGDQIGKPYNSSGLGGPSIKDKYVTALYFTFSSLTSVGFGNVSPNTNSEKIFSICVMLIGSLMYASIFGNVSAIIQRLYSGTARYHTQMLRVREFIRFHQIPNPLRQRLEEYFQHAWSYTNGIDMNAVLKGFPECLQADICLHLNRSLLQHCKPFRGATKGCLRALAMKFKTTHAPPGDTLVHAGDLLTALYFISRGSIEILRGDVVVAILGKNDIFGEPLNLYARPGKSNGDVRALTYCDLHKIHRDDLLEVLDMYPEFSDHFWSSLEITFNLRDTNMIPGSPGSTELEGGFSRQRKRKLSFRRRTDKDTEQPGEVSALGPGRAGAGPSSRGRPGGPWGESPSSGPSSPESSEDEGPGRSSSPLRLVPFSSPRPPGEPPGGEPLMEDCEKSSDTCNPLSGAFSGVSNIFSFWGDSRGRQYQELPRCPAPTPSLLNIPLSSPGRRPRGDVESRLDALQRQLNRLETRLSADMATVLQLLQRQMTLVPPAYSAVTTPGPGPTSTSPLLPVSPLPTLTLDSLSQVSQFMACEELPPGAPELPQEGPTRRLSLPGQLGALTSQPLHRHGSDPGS

Compound	hERG current change (%, negative = inhibition) at 10uM [%]
O=C(O)/C=C\c1cccc(-n2cnnn2)c1	-1.3
Cc1cc(C)n(-c2ccc(NC(=O)C3CCN(Cc4ccccn4)CC3)cc2)n1	-14.5
CC1(C)CC(=O)c2cn3c(nc2C1)nc1ccccc13	-43.4
O=C(COc1ccc(S(=O)(=O)N2CCCCC2)cc1)N1CCCC1	10.9
Cc1ccc(OCc2cc(C(=O)NC3CCOC3)no2)cc1C (centres unmarked)	-2.8
COCOc1ccc(/C=C/C(=O)c2c(OCOC)cc(OCOC)c(CC=C(C)C)c2O)cc1OCOC	5.05
CN(C)c1cccc(C(=O)NCCCn2ccc3ccccc32)c1	-1.2
COc1ccc(C(=O)Nc2ccc3oc(Cc4ccc(Cl)cc4)nc3c2)cc1OC	5.63
CCc1ccccc1S(=O)(=O)Cc1ccc(C(=O)NC(C)C)o1	-5.38
CN(C(=O)COC(=O)c1cncc(Br)c1)C1CCS(=O)(=O)C1 (centres unmarked)	24.8
CC(C)N1C(=O)CCC1C(=O)N1CCCc2ccccc21 (centres unmarked)	-2.71
O=C(NCc1ccccc1)NC1CCCCC1	16.5
O=c1[nH]c(=O)n(-c2ccc(Cl)cc2)c(O)c1C=Nc1ccc(S(=O)(=O)Nc2nccs2)cc1	22.3
COc1ccc(CCNC(=O)c2cc(C3CC3)nc3c2cnn3C(C)C)cc1	-10.6
Cc1ccc(C(=O)Nc2ccccc2OC(F)F)cc1	-8.63
CC(C)n1nnnc1SCC(=O)c1c(N)n(C2CC2)c(=O)[nH]c1=O	15.9
Cc1ccc(SCCNC(=O)C(CO)(CO)CO)cc1	-0.286
O=C(CNc1ccccc1)N/N=C/c1c(O)ccc2ccccc12	19.3
COc1ccc(C2Nc3ccccc3C(=O)N2NC(C)=O)c(OC)c1 (centres unmarked)	14.3
Cc1cc(C)[n+](-c2ccc(Oc3ccccc3)c(S(=O)(=O)[O-])c2)[nH]1	13.6
O=S1(=O)CCOC[C@H](CC2CCCCC2)N1Cc1ccccc1Br	4.87
CSc1ccc(C(=O)C2CCCN(C(=O)c3ccc(C)nc3)C2)cc1 (centres unmarked)	-22.4
CC1CCc2[nH]c3ccc(C(=O)O)cc3c2C1 (centres unmarked)	28

Compound	hERG current change (%, negative = inhibition) at 10uM [%]
CCN(CC)S(=O)(=O)c1ccc(Cl)c(C(=O)OC)c1	-10.7
S=C(NCC1COc2ccccc2O1)Nc1ccc(Br)cc1 (centres unmarked)	-2.95
O=C(COc1ccc2ccc(=O)oc2c1)OCc1ccccc1	5.7
CCCCn1c(SCC(=O)c2ccc3c(c2)OCCO3)nnc1-c1ccoc1C	-15.4
OC1CCN(c2ncnc3nc[nH]c23)CC1	-0.22
Cc1cc(C(=O)c2cccs2)c(N)s1	-4.17
Cc1nc2ccccc2c(=O)n1NC(=O)c1cncc(Br)c1	14.9
O=C(CCNS(=O)(=O)c1cccc(C(F)(F)F)c1)NC1CC1	-15
COc1ccccc1Nc1nc2ccc(C)cc2n2cnnc12	4.89
CCCCNc1c(C(=O)OCC)c(C)nc2c1cnn2CC	-12.8
CC(C)C(C(=O)Nc1ccc(S(N)(=O)=O)cc1)N1C(=O)c2ccccc2C1=O (centres unmarked)	21.6
COC(=O)CSc1nnc([C@H](CC(C)C)NC(=O)OC(C)(C)C)o1	-8.19
CCOc1cc(/C=C/C(=O)NCCc2ccc(S(N)(=O)=O)cc2)ccc1OCC(C)C	-5
Cc1ccccc1-c1nsc(SCC(=O)NCc2ccc3c(c2)OCO3)n1	0.529
COc1cccc(C(=O)NC2=NCCS2)c1	16.9
Brc1ccc2nc3c(n2c1)CCCC3	-30.6
CCc1ccc2c(c1)c(N=NC1=NC(=O)CS1)c(O)n2C	0.556
CCn1cc(CNC(=O)/C=C/c2cnn(C)c2)c(C)n1	0.241
COc1ccc(CNC(=O)[C@@H]2CC=C[C@@H]3CCN(Cc4ccc(Cl)c(Cl)c4)C(=O)[C@@H]32)cc1	-8.85
CCOC(=O)c1sc(-c2cccs2)nc1C	-1.5
O=C(/C=C/c1ccco1)Nc1ccccc1N1CCCC1	-20.5
CCOC(=O)c1cc(C#N)c(N2CCNCC2)nc1C(F)(F)F	-12.3
CCOC(=O)C1=C(O)/C(=C/N(C)C)N=C1C	2.56

Compound	hERG current change (%, negative = inhibition) at 10uM [%]
CCc1ccccc1N(C(=O)c1snc(C(N)=O)c1N)C(C(=O)NCC1CCCO1)c1ccc(C)o1 (centres unmarked)	-21.9
CCOC(=O)c1c(C)n(C)c2cc(CN(C)C)c(O)c(S(=O)(=O)c3ccccc3)c12.Cl	-36.3
O=C(CC1C(=O)NCCN1Cc1cccc(F)c1)NC1CCCCCC1 (centres unmarked)	-8.34
O=C(Nc1ccccc1)C1CCCN(S(=O)(=O)c2ccc(-n3cnnn3)cc2)C1 (centres unmarked)	-15.2
O=C1c2ccc([N+](=O)[O-])cc2C(=O)N1c1ccc([N+](=O)[O-])cn1	14.5
COc1ccccc1N(CC(=O)NC1CCCCC1)S(=O)(=O)c1ccccc1	-7.54
O=C(Nc1nc2ccc(F)cc2s1)Oc1ccccc1	21.9
CCCNCC1C(Oc2ccc(Cl)cc2Cl)C(=O)N1c1cccc(C)c1C.Cl (centres unmarked)	8.48
O=C(c1cccs1)N(c1ccc(Br)cc1)C1C=CS(=O)(=O)C1 (centres unmarked)	-24.1
Cc1nc(N2CCOCC2)nc2c1CCCC2	-4.17
C=CCNC(=O)COC(=O)/C=C/c1cccs1	17.4
O=C(OCC1OC2OC3(CCCCC3)OC2C2OC3(CCCCC3)OC12)c1ccccc1 (centres unmarked)	8.18
Cc1cc(C)c(S(=O)(=O)/N=C2\C=CC(=O)C(Cl)=C2)c(C)c1	9.35
O=C(NCCN1CCCC(O)C1)c1cc(COc2c(F)cccc2F)on1 (centres unmarked)	0.136
CCOC(=O)C1=C(C)N(CCCC(=O)O)C(=O)NC1c1ccccc1 (centres unmarked)	17.8
CN(C)c1nc(N)nc(CSc2nnnn2-c2ccc(C(=O)O)cc2)n1	-7.38
O=C(CSc1nnc(NC(=O)c2ccc(F)cc2)s1)NC1CC1	10.4
CN(C(=O)CSc1nnc(-c2ccccc2)c(-c2ccccc2)n1)C1CCS(=O)(=O)C1 (centres unmarked)	-15.8
CCOc1c(Cl)cnn(-c2ccc(C)cc2)c1=O	9.9
CC(C)CCOc1ccc(C2CC(=O)N(C)C2=O)cc1 (centres unmarked)	1.2
COc1ccccc1C(=O)NCC(=O)NCCc1ccc(Cl)cc1	-13
Cc1ccc(C)c(NC(=O)CN(C)C(=O)c2cc3ccccc3o2)c1	-1.25
Cc1ccccc1CS(=O)(=O)c1ccc(C(=O)N2CCC(C)CC2)cc1[N+](=O)[O-]	0.275

Compound	hERG current change (%, negative = inhibition) at 10uM [%]
Cc1ccccc1Nc1nc(N)nc(COC(=O)c2ccc(O)cc2)n1	-4.59
CC(C)n1cc(CN2CCC(C(=O)Nc3cccc(-c4cccc(Cl)c4)c3)CC2)cn1	-85.1
COc1ccc(N2CCN(S(=O)(=O)c3c(C)[nH]c(C)c3C(=O)N3CCCCC3)CC2)cc1	2.63
[O-][n+]1ccccc1/C=C/c1ccccc1	3.06
N=c1oc2ccc([N+](=O)[O-])cc2cc1C(=O)NCc1ccccc1	-4.7
O=C(CCN1CCOCC1)NNC(=O)Nc1cccc(C(F)(F)F)c1	11.4
CCCCOC(=O)Cn1c(=O)oc2ccc(C)cc21	5.97
CCN(CC)C(=O)c1ccc(NC(=O)c2cn(-c3ccccc3)nc2-c2ccc(OC)cc2)cc1	10.4
CN1CCN(CC(C)(C)NS(=O)(=O)c2ccc(Cl)cc2)CC1	-20.4
N#Cc1c2n(c3c(=O)n(CC(=O)c4ccc(Br)cc4)cnc13)CCCC2	-21.3
CC(=O)Nc1nnc(SCC(=O)NCC2CCCO2)s1 (centres unmarked)	-1.4
CCOc1ccccc1-c1nnc(SCC(=O)NC2CC2)n1CC	16.1
Cc1ccc(S(=O)(=O)NCCCN2CCOCC2)cc1C	1.39
CCCCC(O)(c1ccc(OC)cc1)C(CN1CCOCC1)c1ccccc1.Cl (centres unmarked)	10.4
CC(C)CC(COCc1cccc(Cl)c1)N1CCN(C(=O)c2ccc(C(F)(F)F)cc2)CCC1=O (centres unmarked)	-38.9
CCOc1ccc(S(=O)(=O)N2CCCC(C(=O)N3CCOCC3)C2)cc1C (centres unmarked)	14.3
O=C(N/N=C1\CCc2ccccc21)c1ccc(O)cc1	1.97
CCC(C)C(NC(=O)C1CCC(C)CC1)C(=O)NCc1cccnc1 (centres unmarked)	4.79
O=C(c1cc(C2CC2)on1)N1CCN(c2ccccc2)CC1	-14.1
Cc1c(Cl)cccc1NC(=S)NCC(c1cccnc1)N(C)C (centres unmarked)	-4.13
CC(C)c1ccc(NC(=O)C2CCCN2S(=O)(=O)c2ccccc2F)cc1 (centres unmarked)	-20.5
Cc1ccc(-n2c(CNc3cccc(Cl)c3)n[nH]c2=S)cc1	15.4
O=C(CCCC(=O)OCC(Cl)=C(Cl)Cl)Nc1cccc2ccccc12	12.4

Reference: article PMC4336329 (PLoS ONE, 2015)
